# Reference: PMC6919601, “Identification of Plasmodium dipeptidyl aminopeptidase allosteric inhibitors by high throughput screening” (PLoS ONE, 2019)
# Screen size: about 110,000 compounds; about 230 (0.21%) showed an effect of 50% or more. Some of the results follow.
# Molecular target: DPAP1 (Plasmodium falciparum, UniProt Q8IIJ9)
# Assay: primary screen, percent inhibition; read by cleavage of a fluorogenic dipeptide substrate; higher = more effect of the substance
# Set-up: species or system P. falciparum D10 trophozoite lysates; single well
# 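Further: 30 min substrate incubation versus DMSO and 10 µM JCP410 controls.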
# DPAP1, sequence (Q8IIJ9 whole entry, looked up): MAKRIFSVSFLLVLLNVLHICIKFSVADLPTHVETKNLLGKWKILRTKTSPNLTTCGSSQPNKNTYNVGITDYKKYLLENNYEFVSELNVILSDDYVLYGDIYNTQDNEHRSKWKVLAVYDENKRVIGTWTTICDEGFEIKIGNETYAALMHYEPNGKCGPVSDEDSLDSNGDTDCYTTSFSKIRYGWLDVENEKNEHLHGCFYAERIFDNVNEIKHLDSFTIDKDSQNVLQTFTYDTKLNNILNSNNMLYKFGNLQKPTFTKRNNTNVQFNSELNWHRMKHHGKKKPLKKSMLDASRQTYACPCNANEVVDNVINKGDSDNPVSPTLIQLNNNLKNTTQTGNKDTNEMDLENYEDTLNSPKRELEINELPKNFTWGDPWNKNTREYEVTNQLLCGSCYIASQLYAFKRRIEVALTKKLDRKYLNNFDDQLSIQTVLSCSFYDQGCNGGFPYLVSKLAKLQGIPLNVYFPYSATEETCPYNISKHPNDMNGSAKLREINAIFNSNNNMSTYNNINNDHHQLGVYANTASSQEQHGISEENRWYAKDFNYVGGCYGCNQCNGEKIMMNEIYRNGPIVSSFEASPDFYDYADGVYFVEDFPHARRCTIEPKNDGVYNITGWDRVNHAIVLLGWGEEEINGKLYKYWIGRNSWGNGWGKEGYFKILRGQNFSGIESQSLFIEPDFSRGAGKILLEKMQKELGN
row,SMILES,% Inhibition @ 10 uM [%]
1,Cc1ccc(S(=O)(=O)N2CCCC(C(=O)NC3CCCc4ccccc43)C2)cc1 (centres unmarked),-1.34
2,O=C(COc1ccc(Cl)cc1)NCc1ccc2c(c1)OCO2,0.611
3,Cc1ccccc1C(=O)OC1OC(=O)C(Cl)=C1N1CCOCC1 (centres unmarked),-1.47
4,COc1ccc(NC(=O)CSc2nccn2C)c(OC)c1,0.343
5,COc1cc(/C=C2\NC(=O)NC2=O)ccc1OCC(=O)Nc1ccc(F)cc1,0.245
6,CC(Cc1ccccc1F)N1CCC(C(N)=O)CC1 (centres unmarked),-1.64
7,CC1ON(c2ccc(Cl)cc2)C(=O)NC1=O (centres unmarked),-1.45
8,CCC(C)N1C(=O)CN(C2CCC(C)CC2)C(=O)C1c1ccc(F)cc1 (centres unmarked),4.47
9,Cc1cccc(NC(=O)c2cc3c(ccc4ccccc43)oc2=O)n1,1.37
10,Cn1cc(Cl)c(C(=O)Nc2cnn(Cc3ccc(Cl)cc3Cl)c2)n1,-1.37
11,CC(C)c1ccc(/C=c2\sc3nc(-c4ccncc4)nn3c2=O)cc1,0.222
12,COc1ccc(C2c3c(n(C)c4ccccc34)C(=O)N2CC(=O)NCc2cccs2)cc1 (centres unmarked),1.63
13,CC1(c2ccccc2)OC(=O)C(=Cc2ccc(O)cc2)C(=O)O1 (centres unmarked),-1.47
14,CCCCNc1ccc(C(=O)N[C@@H](CC(C)C)C(=O)NCC#N)cc1,-3.04
15,CC1CCCC(N(CCO)CCO)C1 (centres unmarked),-1.81
16,NCCCCCCNC(=O)c1c(O)oc2ccccc2c1=O,-1.69
17,O=C(/C=C/c1ccco1)NCCCN1CCOCC1,5.69
18,COc1cc2c(cc1OC)CN(Cc1cc(OC)c(OC)c(OC)c1)CC2,1.2
19,O=C(Cc1ccc(F)cc1F)NC1CCCCC1,-3.15
20,Clc1ccc(-c2csc(-c3ccccn3)n2)cc1,-6.04
21,O=S(=O)(Nc1ccncc1)c1ccc(-c2ccc(Cl)cc2)cc1,7.37
22,COc1ccc(N2CCN(C/C=C/c3ccc(N(C)C)cc3)CC2)cc1,-1.64
23,CC1(c2cccnc2)CC(=O)c2cc(O)ccc2O1 (centres unmarked),6.13
24,Cc1cccc(NC(=O)CC[C@H](NC(=O)c2ccc(Br)cc2)C(=O)NCC#N)c1,-4.72
25,Cc1cc(Cl)ccc1OC(C)C(=O)Nc1ccc(F)c(F)c1 (centres unmarked),-1.42

row,SMILES,% Inhibition @ 10 uM [%]
1,CCc1nnc(SCc2ccc(OCCC(C)C)cc2)n1N,-3.33
2,COc1cc2c(cc1OC)C(c1ccccc1)N(C(=O)C(C)(C)C)CC2 (centres unmarked),2.24
3,Cc1ccc(Sc2c(C(=O)NCC3CCCO3)[nH]c3ccccc23)cc1 (centres unmarked),-6.99
4,CCOC(=O)c1cc(S(=O)(=O)NCCc2ccc(Cl)cc2)cn1C,-6.59
5,CC(C)CC(=O)Nc1nnc(S(=O)(=O)N2CCOCC2)s1,14.6
6,O=C(NCCCn1ccnc1)c1nn2c(C(F)(F)F)cc(-c3cccs3)nc2c1Cl,1.02
7,Cc1ccc(C(=O)c2coc3ccc(OCC(=O)O)cc23)cc1,18.3
8,CC(=O)N(C)c1ccc(NC(=O)COc2ccc(C)cc2)cc1,-4.18
9,O=C(CCn1c(=O)[nH]c2ccsc2c1=O)NCCSCc1ccccc1,-7.33
10,CC(C)C[C@H](NC(=O)OCc1ccc(F)cc1Cl)C(=O)NCC#N,-4.72
11,CC1CCC(C(=O)NC(C(=O)NC2CCCC(C)C2C)C(C)C)CC1 (centres unmarked),-5.67
12,CCN(CC)S(=O)(=O)c1ccc(C(=O)OCCN2C(=O)CCC2=O)cc1,-4.84
13,COc1ccccc1CCNC(=O)CCC(=O)N1CCSc2ncccc21,-7.47
14,Cc1cccc(C)c1NC(=O)c1ccc(OC(F)F)cc1,-5.06
15,CC(=O)Nc1ccc(S(=O)(=O)N2CCCCCC2)cc1,-1.93
16,Cc1c(-c2ccccc2)n(-c2cccc(O)c2)c2nc3c(c(=O)n(C)c(=O)n3C)n12,0.772
17,COCCn1c(CN2CCN(C)CC2)nc2c1c(=O)n(C)c(=O)n2C,-1.43
18,COc1ccc(CN2CCc3cc(OC)c(OC)cc3C2)cc1C,-5.57
19,COC(=O)c1[nH]c2ccccc2c1/C=C1\C(=O)NC(=S)N(c2ccccc2C)C1=O,2.6
20,O=S(=O)(Nn1cnnc1)c1ccccc1Cl,-2.26
21,N#Cc1c(NCc2ccccc2)ccnc1SCc1ccc(Cl)cc1,2.13
22,CCN(CC)c1ccc(Nc2nc(-c3c(C)nc4cc(C)ccn34)cs2)cc1,5.8
23,CC1=C(C(=O)Nc2ccc(Br)cn2)C(c2ccc(Cl)cc2)C2=C(O)CCCC2=N1 (centres unmarked),-9.79
24,CC(C)C[C@H](NC(=O)OCc1ccccc1)C(=O)N[C@@H](CCc1ccccc1)C(=O)CN(Cc1ccccc1)C(=O)OC(C)(C)C,-4.82
25,CCN(C(=O)c1cccc(Cl)c1)c1ccccc1C,-1.54
